Test results: the RNAGym collection of RNA variant scans (doi:10.7554/elife.90254)
The source gives no read counts; variants with many changes may rest on few reads.

B1: LINE1-mini (parent)
chain: GGCAGAGCUCAACACAGCGUGGCAAAGUGGCUGUGGCUAGACUGCC

Variants of: B1
Assay: self-cleavage, relative activity (ratio to wild type); higher = more cleavage; in vitro, sequencing; the parent is a self-cleaving ribozyme

Variant | self-cleavage
G5A C8G U28G G29C | 0.07
G5A G17U A41G C45A | 0.01
G5A A6C C10A U32G | 0.04
G5A C18G A26U | 0.05
G5A A6C G33U | 0.04
G5A C15U A24U G27C G29C | 0.02
G5A C8G C13U C15A | 0.1
G5A C8A G19C U28G | 0.21
G5A C18U G19U G27C | 0.11
G5A C10U G21C A25G | 0.01
G5A G19U G21U | 0.01
G5A A11G G19U U20A U38A | 0.02
G5A C10A G27C U34C A41G | 0.01
G5A A16G G40A C45A | 0
G5A C15G G21U G22U C31U | 0.02
G5A C10U A11C G22U | 0.04
G5A C13U G19A A26U G30A C42U C45G | 0.03
G5A C37G A39U | 0.05
G5A A12C G17C U20G G27C U32G G36C G44A | 0.01
G5A C37A A39G | 0.06
G5A C10A C13G G17A A41U C46U | 0.05
G5A A16C G30A | 0.05
G5A C23A C46G | 0.39
G5A A11G C15G A24G G30C U34A G36U C46U | 0

Variant | self-cleavage
G5A G7A C8U A11G A14U G19U U28G A39G G40C | 0.02
G5A G7C G30A | 0.48
G5A C18G G33A | 0.12
G5A A11C C37U C46U | 0
G5A A26U U28A G36A | 0.06
G5A C15U C23G | 0.13
G5A A6G G22C A26G G30C U32A U34C | 0.02
G5A A11U G30C C42G C46U | 0.01
G5A C18U G22A | 0.2
G5A C18G U20C G36C | 0.03
G5A A25C U34A A39U | 0.03
G5A A6C C8G G19U | 0.04
G5A A12G G17U C18G G21A A41G | 0.02
G5A A14U G17U G27C G36A G40U | 0.07
A4U U32A C46U | 0.16
G5A A6C G7C C13A C18G | 0.08
G5A C23A A25C C31G | 0.04
G5A C13G U20A G44U | 0.04
G5A A6G U9G A16U G19U C23A G33A C46U | 0.03
G5A C13A A26G G29U G30U A39G | 0.09
G5A C13A G30A C31G C46A | 0.03
G5A C8A G33U | 0.29
G5A C13A G22C A24G A39G | 0.09
G5A C10U C31G C45U | 0.03

Variant | self-cleavage
G5A A6G A14C A24U G33C C37G | 0.01
G5A C31G G44U C46U | 0
G5A G19U G33A G40C U43G C45G | 0.01
G5A A16C C23U G27U G36A G40A C42A U43A | 0.05
G5A A39G C45A | 0.02
G5A C13A G29U | 0.15
G5A C15G C46U | 0.07
G5A A14C U20G G21A C23G | 0.1
G5A A16G G27U C31G G33U | 0.01
G5A G7U C13A C31G G33A | 0.03
G5A C10A C18G U38A A39C | 0.03
G5A G19U G36A | 0.22
A4U U32G U34A C37G | 0.05
G5A C31G U38A U43G | 0.02
G5A A14U C15A G33U U34A | 0.3
G5A G7C G29U A41U C45A | 0.07
G5A A14G A26C | 0.07
G5A C15A C31U | 0.03
A4U U28G G33C | 0.02
G5A G7U A14G G22U A26U G40U | 0.3
G5A C18U C37G U43A | 0.02
G5A G19A G36U G40U | 0.03
G5A A6C C15G C45U | 0.03
G5A A16C G17U C18A U43G G44A | 0.07

Variant | self-cleavage
G5A C10G A16G A41G | 0.02
G5A G17A G29C | 0.35
G5A C13G U28C G33C | 0.03
G5A C8A U20C C31U | 0.04
G5A G17U G19U G35U U43A | 0.03
G5A C8A C18A C37U A39G | 0.38
A4U U28C G30C C31U A39U | 0.15
G5A G17U G30C | 0.02
G5A A14U C18A G33A | 0.03
G5A C13U C18U C31A U38C | 0.01
G5A C18U U34G | 0.01
G5A C8A G21U | 0.02
G5A A11U C37A | 0.03
G5A A26G U43G | 0.03
G5A C18U G36A C46G | 0.05
G5A C10G A25C U34C C37A | 0.01
G5A A41U C42U | 0.05
G5A A41U C42A | 0.06
G5A A11U G30A | 0.02
G5A A11U G19A G21U | 0.02
G5A A26C C45U | 0.13
G5A C10G A11U | 0.02
G5A C37G A41U C42G G44A | 0
G5A G7A C18A C23U U28G U38G A39G | 0.1

Variant | self-cleavage
G5A G7C G29U G36U | 0.03
G5A A12G G19C | 0.03
G5A C10A C37A A39G | 0.01
G5A G7C G19U A26U | 0.13
G5A A6U C15U G30C | 0.11
G5A A6C G36A | 0.08
G5A G17C C23U | 0.11
G5A A25C C31A U38A | 0.05
G5A A6G G19A U20C G22U | 0.02
G5A A11C G30A | 0.02
G5A A6G C15U U34A | 0.08
G5A G17C U38A | 0.12
G5A A26G G33C | 0.07
G5A A12C G17U G19C | 0.03
G5A C10G G19C G21U G27A U32A | 0.02
G5A G19A G21C | 0.03
G5A C10A A12C | 0.01
G5A C13G G27U U38G | 0.04
G5A A16C C46U | 0.03
G5A A12U A25C G35A G40C | 0.01
G5A C18G G35A G40C G44U | 0
G5A C18G G22U C23U G33U U34C A41U | 1
G5A C10U G17U U20C A41U | 0.04
G5A C8G G19U | 0.01

Variant | self-cleavage
G5A A11G A25G G33A G40A | 0.02
G5A C13A G30U C46G | 0.04
G5A G7A C23G | 0.26
G5A A14C C18G C23G C31U G33U A39G | 0.01
G5A A6G A16G C18U C45G | 0.36
G5A G7C A12G A25C A39C | 0.07
G5A C8U G40U | 0.09
G5A A16U U34G | 0.02
G5A G17U C31G U32A A39G | 0.02
G5A A11U G29U A39U | 0.03
G5A C8A A25C C42U G44C | 0.02
G5A A12C U28A C31G | 0.02
G5A A11C A16U G35C C37A U38A | 0
G5A C10U G17C C18G | 0.02
G5A C10G C31G U38G A39C | 0.06
G5A A16C G22U G29C | 0.04
G5A A11G C15G G29U | 0.03
G5A G19A G22U | 0.03
G5A G17U G27C | 0.06
G5A G17U G27A | 0.05
G5A A11U C42U | 0.09
G5A A16U G29A A41G U43C | 0.02
G5A A11G C15U A24C U43G | 0.02
G5A G7C A24U | 0.07

Variant | self-cleavage
G5A G7A G30U | 0.27
G5A A24U G30A G35C C46U | 0.1
G5A A6U C46A | 0.2
G5A A14C C15A A16C G21U G35U | 0.02
G5A C15A G27C | 0.01
G5A C8U U28A | 0.12
G5A C31A C45A | 0.04
G5A C31A C45U | 0.03
G5A C13A C18A | 0.05
G5A A11G C15G A26U | 0.01
G5A A16U G19U G21A C31G G36C | 0.01
G5A G7U C18U G29A | 0.09
G5A C10A U32A G44A | 0.06
G5A A12G G30C U34C C46U | 0.16
G5A C10U C15G A25G G35A | 0.03
G5A A14U U34A | 0.06
G5A G7U C10U A14U G40A | 0.05
G5A G17C A26C C42U U43A | 0.02
G5A C18U G22A C37U | 0.08
G5A G21A G27C U38A | 0.13
G5A A12G G17U G33C | 0.1
A4U U32G G36A A39G G40A U43C G44C | 0.02
G5A G7U U38C C42U | 0.12
